Consider 167 variants from the RNAGym collection of RNA variant scans (doi:10.1101/gad.245936.114).

Variants at the background level are over-represented here.

First the molecules themselves.
B1: tRNA (parent)
chain: CUCUCGGUAGCCAAGUUGGUUUAAGGCGCAAGACUUUAAUUUAUCACUACGAAAUCUUGAGAUCGGGCGUUCGACUCGCCCCCGGGAGAUUUUUUCCUCGAGCAA

Variants of B1 are the subject of this series. The series can be described thus: nonsense suppression (GFP-seq) (ratio to wild type); higher = more function; SUP4oc tRNA, yeast GFP reporter sort-seq. Summed up: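 Sorted GFP/RFP bins of yeast were each Illumina-sequenced with a phred ≥30 cutoff; the cells held a genome-integrated ochre-suppressor tRNA variant from a library with ~3% random mutations, a galactose-driven GFP ochre reporter, and RFP. Culture was in raffinose/galactose medium containing 80 mg/L adenine. Nonsense suppression, termed GFPSEQ, is the median GFP/RFP of the bins weighted by each variant's estimated cell share per bin, relative to the unmutated parent tRNA, for variants reaching ≥100 reads and ≥30 cells.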
On to G25U G61C, for which the nonsense suppression was not above 0.026. U20C U21A: the nonsense suppression is 0.188. For U8G A9C C83G the value was not above 0.026. For C34A U35C the value was not above 0.026; for G65C G69C, not above 0.026; for U4G G61A G78U, not above 0.026. The figure for A9C C72G is not above 0.026. Consider C11G A33G A60G G69U, for which the nonsense suppression was not above 0.026. For the variant U2G G59U C64G G78A, the nonsense suppression is not above 0.026. For C3U U21C G61A the value was 0.206. For U2C G18C C29U G65A G73A the value was not above 0.026.

Take C1U G73U: the nonsense suppression is not above 0.026.

Take G19U C80A: the nonsense suppression was not above 0.026. For U8C A87U the value was not above 0.026; for C1U G6U A33U A89G, not above 0.026. Take G19U G69A G88A: the nonsense suppression was not above 0.026. In the case of G67C G88C, the nonsense suppression was not above 0.026. For A33G A74C the value was not above 0.026. In the case of A74U, the nonsense suppression was not above 0.026. For G7U G61C C77A G78U the value was not above 0.026; for U57C G88C, not above 0.026. For C11A A54C G78C the value was not above 0.026; for C12G A14G U20G C27U C68A C82G, not above 0.026. In the case of U2C U8G G26A, the nonsense suppression was not above 0.026. For A60U U63G the value was 0.789; for U2G G88U, not above 0.026; for U58A A62G G78C C82U, not above 0.026.

On to A87U G88A, for which the nonsense suppression is not above 0.026. The figure for G19U U70G is not above 0.026; for U21C G25A G84A G85U it is not above 0.026; for C3U C27A G88U it is not above 0.026. For G6A G25C A87G G88A the value was not above 0.026; for C1U U8A A9G G15C G86U G88C, not above 0.026; for C29A C34A A62C, not above 0.026. For U2C A14U U16G G25U G85C the value was not above 0.026; for G15C C64U G69U G86U, not above 0.026. As to G18A A30G U71G, the nonsense suppression was not above 0.026.

With C29U U55G G84C, the nonsense suppression is not above 0.026. For A9G U58C C64G U76A the value was not above 0.026. For G7C U35A the value was not above 0.026; for C3U A9U A14U G28C U76A, not above 0.026. U4C G10U U16A U20C C72G C75G: the nonsense suppression is not above 0.026. For the variant A60C G86C, the nonsense suppression was not above 0.026. For A62C G69U C80A the value was not above 0.026; for G15U U63G U76A, not above 0.026; for A31U U58C A60C G69A U71A, not above 0.026.

For the variant U16C C82A G85A, the nonsense suppression was not above 0.026.

Turning to G7C A9U, the nonsense suppression turned out to be 0.0428.

Take C64G G73U: the nonsense suppression is not above 0.026. The figure for U21A C56A is not above 0.026; for A74U C81A it is not above 0.026; for A30C G61U U63G C68U it is not above 0.026. With G67C U76A C82A, the nonsense suppression is not above 0.026. The figure for A14C C64A is not above 0.026; for G66U G73U C75A C81G it is not above 0.026.

For the variant C1G C12G C56A G61U U71G U76C, the nonsense suppression was not above 0.026. For C3G C34A G61U the value was not above 0.026; for A24U U63C, 0.0344; for C79U C80U C83G, not above 0.026.

In the case of A23C A74U, the nonsense suppression was not above 0.026. For U17C A33U G61C G73U the value was not above 0.026; for G6U U22C U57C C77G, not above 0.026; for C5A C29A, not above 0.026. For U17G G19A A30C A74U the value was not above 0.026; for A9U G66U A74G, not above 0.026. The figure for U35A G67A is not above 0.026; for U2C G25U A30C G59U A62U it is not above 0.026.

For the variant C12A G26A A87C, the nonsense suppression was not above 0.026. For U2G U57A A74U the value was not above 0.026; for A13G G18A, not above 0.026. For U76A C81A the value was not above 0.026; for C5U G19C U35G G85A A87G, not above 0.026.

As to G28A C83G A89C, the nonsense suppression was not above 0.026.

Take C5A U16A A60U: the nonsense suppression was not above 0.026. The figure for A13G C29A is 0.03; for G6C U16G G25U U55C it is not above 0.026; for A23G U63G it is not above 0.026. The figure for A13U A14U G65C is not above 0.026. For C3U C27G G32U the value was not above 0.026; for C1U U2G G32C G61A G78C C82U, not above 0.026; for C1G A60G G66A U70C, not above 0.026. Regarding U4C C27G A33U A60U U63A, the nonsense suppression was not above 0.026.

Regarding G10C U57G, the nonsense suppression is not above 0.026.

In the case of A33U C34U, the nonsense suppression is not above 0.026. For A24U U57G U58G the value was not above 0.026; for U22G U63A, 0.939; for G7C A24C G86A, not above 0.026. The figure for C1G U58C A62U G78U is not above 0.026. As to C29G C68G U70C C77A, the nonsense suppression was not above 0.026. The figure for G32A C79A G88A is not above 0.026. The figure for A9U G67C is not above 0.026. For A14C U22A A30G the value was not above 0.026; for G10C G61U A74U, not above 0.026; for G32C U70C, not above 0.026. As for G10U G15C A30U G59C G67A, the nonsense suppression is not above 0.026. The figure for G19A C27A A62U C79G is not above 0.026; for A74G C81G it is not above 0.026. For C1U U20A the value was not above 0.026; for G28A A30U C34U, not above 0.026. For U2C C11U A33C the value was not above 0.026; for C3G U8G, not above 0.026; for U22C G32C G67A, not above 0.026. Consider U71A A89C, for which the nonsense suppression is not above 0.026. The figure for G25U G61A C82G G88U is not above 0.026. For C12U G25A A30C the value was not above 0.026; for G10A A13U U57A, not above 0.026; for C11A U70G U71C, not above 0.026. The figure for U2C C29A A60C G67A is not above 0.026; for C3U G69C it is not above 0.026; for G7A C29A A62U it is not above 0.026. Regarding G65U C68G, the nonsense suppression was not above 0.026. The figure for U58A A60G C80A is not above 0.026; for G18C A60C G65C it is not above 0.026. The figure for C12G G61A G73C is not above 0.026; for G7U U71G it is not above 0.026; for C1A G18C A60U it is not above 0.026. The figure for A13G G78C is not above 0.026; for C34A U63A C82G it is not above 0.026; for G59A G69A U70C it is not above 0.026.

As to C5A C75G C83U, the nonsense suppression is not above 0.026. The figure for U2G U4G is not above 0.026; for C27U A31C G61C it is not above 0.026. For the variant G69A G86U, the nonsense suppression is not above 0.026.

On to U55A G67U, for which the nonsense suppression was not above 0.026. For A54G C64A the value was not above 0.026; for U57C G73A, 0.0414. As to U20C C80A, the nonsense suppression is not above 0.026. Regarding U20C A23C G88A, the nonsense suppression is not above 0.026. The figure for U2C C56U G59A A87U is not above 0.026. In the case of C5U G32A U76C, the nonsense suppression was not above 0.026. For C27A U57C the value was not above 0.026; for U20C C82A, not above 0.026.

With U22A A23C C27U, the nonsense suppression is not above 0.026. The figure for G25U G66U G78C is not above 0.026; for G26A A31G C34U A62G it is not above 0.026. The figure for U8C G67A is not above 0.026; for U21C G69A it is not above 0.026; for U58G G65A G88A it is not above 0.026. For C5A U76C the value was not above 0.026. Consider C29A G32U G66A C72A, for which the nonsense suppression was not above 0.026. The figure for G10U U16G A24C is not above 0.026; for U21G A30C A31G G32C A89G it is not above 0.026; for G6U C11G C29G G61C it is not above 0.026. For U2C A13C A24U A31G the value was not above 0.026. The figure for C5A A89C is not above 0.026; for A14C U20G G86U it is not above 0.026; for C3U C5A G26U it is not above 0.026.

For the variant U8G A54G, the nonsense suppression is not above 0.026. The figure for A23C C27A is not above 0.026; for C3U U58G C77A G78A it is not above 0.026. Take U16G A23C G59C G88A: the nonsense suppression was not above 0.026. The figure for G18U U21A G25U is not above 0.026; for G18C U63G G86A it is not above 0.026; for A74U A87U it is not above 0.026. For A9G U71A A74C the value was not above 0.026; for A14G G61C, 0.0278; for G10U U21C G69A, not above 0.026. The figure for G6A A9C G18U is not above 0.026. Consider A30C U57G A60C, for which the nonsense suppression was not above 0.026. For G7A A9G C72A U76A G84A the value was not above 0.026.

For the variant C5U U70A, the nonsense suppression was not above 0.026. The figure for C5A C11G A23C U55A G59C C79G is not above 0.026; for U16A U35A it is not above 0.026; for C1U A9U G18U it is not above 0.026. Consider U20G U71G, for which the nonsense suppression is not above 0.026. The figure for A13G C27A A31U U55C C75U is not above 0.026; for A33G A60G G67C U71C C72U it is not above 0.026.
